Test results published in paper PMC9911399, “Two distinct binding modes provide the RNA-binding protein RbFox with extraordinary sequence specificity”.
Residue numbers refer to the chain shown, from its start. The list shows a part of the results.

T1: RBFOX1 RRM RbFoxmut (Fox-RRM*) (Homo sapiens, UniProt Q9NWB1 109-208, R118D;E147R;N151S;E152T)
T1 sequence: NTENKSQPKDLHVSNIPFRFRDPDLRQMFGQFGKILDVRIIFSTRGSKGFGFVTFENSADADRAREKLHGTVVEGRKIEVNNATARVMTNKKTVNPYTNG

B1: CGUCGUA (DNA:RNA)
RNA: GGGAGACCGGAAUUCAGAUUGUCCCGUCGUAUUAAAUCCCGUCGUAGCCACCA
DNA 1: CAATCTGAATTCCGGTCTCCC
DNA 2: TGGTGGCTACGACGGGATT
B2: AUGGAAC (DNA:RNA)
RNA: GGGAGACCGGAAUUCAGAUUGUCCAUGGAACUUAAAUCCCGUCGUAGCCACCA
DNA 1: CAATCTGAATTCCGGTCTCCC
DNA 2: TGGTGGCTACGACGGGATT
B3: GAUGAUG (DNA:RNA)
RNA: B2 RNA with A25G, U26A, G27U, A30U, C31G
DNA 1: CAATCTGAATTCCGGTCTCCC
DNA 2: TGGTGGCTACGACGGGATT
B4: CUGUUUA (DNA:RNA)
RNA: B1 RNA with G26U, U27G, C28U, G29U
DNA 1: CAATCTGAATTCCGGTCTCCC
DNA 2: TGGTGGCTACGACGGGATT
B5: CGACCGG (DNA:RNA)
RNA: B1 RNA with U27A, G29C, U30G, A31G
DNA 1: CAATCTGAATTCCGGTCTCCC
DNA 2: TGGTGGCTACGACGGGATT
B6: UAGGGCA (DNA:RNA)
RNA: B2 RNA with A25U, U26A, A29G, A30C, C31A
DNA 1: CAATCTGAATTCCGGTCTCCC
DNA 2: TGGTGGCTACGACGGGATT
B7: AAGAGAC (DNA:RNA)
RNA: B2 RNA with U26A, G28A, A29G
DNA 1: CAATCTGAATTCCGGTCTCCC
DNA 2: TGGTGGCTACGACGGGATT
B8: UUUCGAC (DNA:RNA)
RNA: B2 RNA with A25U, G27U, G28C, A29G
DNA 1: CAATCTGAATTCCGGTCTCCC
DNA 2: TGGTGGCTACGACGGGATT
B9: CUGUAAG (DNA:RNA)
RNA: B2 RNA with A25C, G28U, C31G
DNA 1: CAATCTGAATTCCGGTCTCCC
DNA 2: TGGTGGCTACGACGGGATT
B10: ACUGUUA (DNA:RNA)
RNA: B1 RNA with C25A, G26C, C28G, G29U
DNA 1: CAATCTGAATTCCGGTCTCCC
DNA 2: TGGTGGCTACGACGGGATT
B11: AACCAAG (DNA:RNA)
RNA: B2 RNA with U26A, G27C, G28C, C31G
DNA 1: CAATCTGAATTCCGGTCTCCC
DNA 2: TGGTGGCTACGACGGGATT
B12: GUAACCG (DNA:RNA)
RNA: B2 RNA with A25G, G27A, G28A, A29C, A30C, C31G
DNA 1: CAATCTGAATTCCGGTCTCCC
DNA 2: TGGTGGCTACGACGGGATT
B13: GGUAAUC (DNA:RNA)
RNA: B1 RNA with C25G, C28A, G29A, A31C
DNA 1: CAATCTGAATTCCGGTCTCCC
DNA 2: TGGTGGCTACGACGGGATT
B14: GUUGGCG (DNA:RNA)
RNA: B2 RNA with A25G, G27U, A29G, A30C, C31G
DNA 1: CAATCTGAATTCCGGTCTCCC
DNA 2: TGGTGGCTACGACGGGATT
B15: ACCUGUG (DNA:RNA)
RNA: B1 RNA with C25A, G26C, U27C, C28U, A31G
DNA 1: CAATCTGAATTCCGGTCTCCC
DNA 2: TGGTGGCTACGACGGGATT
B16: CACGGCC (DNA:RNA)
RNA: B2 RNA with A25C, U26A, G27C, A29G, A30C
DNA 1: CAATCTGAATTCCGGTCTCCC
DNA 2: TGGTGGCTACGACGGGATT
B17: UGUCAAU (DNA:RNA)
RNA: B1 RNA with C25U, G29A, U30A, A31U
DNA 1: CAATCTGAATTCCGGTCTCCC
DNA 2: TGGTGGCTACGACGGGATT
B18: CGCUCGU (DNA:RNA)
RNA: B1 RNA with U27C, C28U, G29C, U30G, A31U
DNA 1: CAATCTGAATTCCGGTCTCCC
DNA 2: TGGTGGCTACGACGGGATT
B19: UUCACAU (DNA:RNA)
RNA: B2 RNA with A25U, G27C, G28A, A29C, C31U
DNA 1: CAATCTGAATTCCGGTCTCCC
DNA 2: TGGTGGCTACGACGGGATT
B20: UUCCGAG (DNA:RNA)
RNA: B2 RNA with A25U, G27C, G28C, A29G, C31G
DNA 1: CAATCTGAATTCCGGTCTCCC
DNA 2: TGGTGGCTACGACGGGATT
B21: UCUGGUA (DNA:RNA)
RNA: B1 RNA with C25U, G26C, C28G
DNA 1: CAATCTGAATTCCGGTCTCCC
DNA 2: TGGTGGCTACGACGGGATT
B22: CGCUCCU (DNA:RNA)
RNA: B1 RNA with U27C, C28U, G29C, U30C, A31U
DNA 1: CAATCTGAATTCCGGTCTCCC
DNA 2: TGGTGGCTACGACGGGATT
B23: GUCCAUU (DNA:RNA)
RNA: B2 RNA with A25G, G27C, G28C, A30U, C31U
DNA 1: CAATCTGAATTCCGGTCTCCC
DNA 2: TGGTGGCTACGACGGGATT
B24: GACUGGU (DNA:RNA)
RNA: B1 RNA with C25G, G26A, U27C, C28U, U30G, A31U
DNA 1: CAATCTGAATTCCGGTCTCCC
DNA 2: TGGTGGCTACGACGGGATT
B25: UGCCACC (DNA:RNA)
RNA: B2 RNA with A25U, U26G, G27C, G28C, A30C
DNA 1: CAATCTGAATTCCGGTCTCCC
DNA 2: TGGTGGCTACGACGGGATT
B26: CUUUUGG (DNA:RNA)
RNA: B1 RNA with G26U, C28U, G29U, U30G, A31G
DNA 1: CAATCTGAATTCCGGTCTCCC
DNA 2: TGGTGGCTACGACGGGATT
B27: ACAGUAA (DNA:RNA)
RNA: B2 RNA with U26C, G27A, A29U, C31A
DNA 1: CAATCTGAATTCCGGTCTCCC
DNA 2: TGGTGGCTACGACGGGATT
B28: CUACACU (DNA:RNA)
RNA: B2 RNA with A25C, G27A, G28C, A30C, C31U
DNA 1: CAATCTGAATTCCGGTCTCCC
DNA 2: TGGTGGCTACGACGGGATT
B29: GGAGUCG (DNA:RNA)
RNA: B2 RNA with A25G, U26G, G27A, A29U, A30C, C31G
DNA 1: CAATCTGAATTCCGGTCTCCC
DNA 2: TGGTGGCTACGACGGGATT
B30: GACAUAC (DNA:RNA)
RNA: B2 RNA with A25G, U26A, G27C, G28A, A29U
DNA 1: CAATCTGAATTCCGGTCTCCC
DNA 2: TGGTGGCTACGACGGGATT
B31: UUUUGGG (DNA:RNA)
RNA: B1 RNA with C25U, G26U, C28U, U30G, A31G
DNA 1: CAATCTGAATTCCGGTCTCCC
DNA 2: TGGTGGCTACGACGGGATT

What follows are binders tested against T1, RBFOX1 RRM RbFoxmut (Fox-RRM*) (assay: EMSA; HiTS-Eq, 1 nM pool, 10 min; buffer printed only for the single-RNA assays: 10 mM Tris pH 7.5, 150 mM NaCl, 3.4 mM EDTA, 0.001% NP-40, 30 C). Settings: tags: His6 N-terminal (pET28a); label: 5' 32P.
Summary of the method: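 A pool of RNA with 7 randomized nucleotides, 5′-radiolabelled and with DNA-annealed flanks, was equilibrated at 1 nM for 10 min in 50 µL with purified RbFox RRM, wild type or mutant, across increasing protein concentrations. Free RNA was separated by 8% native PAGE, excised, reverse-transcribed, barcoded by PCR and sequenced. Relative association constants were obtained from read-count changes of each RNA species versus the control reaction and normalised to the cognate motif.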
With B1 the binding signal was 0.0427 KA relative to UGCAUGU.
In the case of B2, the binding signal is reported as 0.127 KA relative to UGCAUGU.
B3 was tested, and the binding signal was 0.145 KA relative to UGCAUGU.
In the case of B4, the binding signal is reported as 0.121 KA relative to UGCAUGU.
In the case of B5, the binding signal is reported as 0.0704 KA relative to UGCAUGU.
B6 was tested, and the binding signal was 0.0749 KA relative to UGCAUGU.
B7 was tested, and the binding signal was 0.0822 KA relative to UGCAUGU.
B8 was tested, and the binding signal was 0.0471 KA relative to UGCAUGU.
In the case of B9, the binding signal is reported as 0.115 KA relative to UGCAUGU.
B10 was tested, and the binding signal was 0.133 KA relative to UGCAUGU.
B11 was tested, and the binding signal was 0.0713 KA relative to UGCAUGU.
B12 was tested, and the binding signal was 0.114 KA relative to UGCAUGU.
With B13 the binding signal was 0.149 KA relative to UGCAUGU.
B14 was tested, and the binding signal was 0.136 KA relative to UGCAUGU.
For B15, the binding signal was 0.139 KA relative to UGCAUGU.
B16 was tested, and the binding signal was 0.18 KA relative to UGCAUGU.
For B17, the binding signal was 0.0655 KA relative to UGCAUGU.
For B18, the binding signal was 0.11 KA relative to UGCAUGU.
With B19 the binding signal was 0.0831 KA relative to UGCAUGU.
With B20 the binding signal was 0.113 KA relative to UGCAUGU.
In the case of B21, the binding signal is reported as 0.147 KA relative to UGCAUGU.
B22 was tested, and the binding signal was 0.0521 KA relative to UGCAUGU.
With B23 the binding signal was 0.0918 KA relative to UGCAUGU.
With B24 the binding signal was 0.194 KA relative to UGCAUGU.
B25 was tested, and the binding signal was 0.0582 KA relative to UGCAUGU.
For B26, the binding signal was 0.0792 KA relative to UGCAUGU.
B27 was tested, and the binding signal was 0.109 KA relative to UGCAUGU.
For B28, the binding signal was 0.0536 KA relative to UGCAUGU.
For B29, the binding signal was 0.163 KA relative to UGCAUGU.
B30 was tested, and the binding signal was 0.0893 KA relative to UGCAUGU.
With B31 the binding signal was 0.0761 KA relative to UGCAUGU.
